The supplement of paper PMC3334620
The full ranking holds about 33,000 sequences; the median of “E-score (-0.5 to 0.5)” is about -0.01, and the highest 2% start at about 0.26. The list shows a part of the results.

These sequences were tested against Ste12 (UniProt P13574) (assay: PBM E-score (8-mer binding enrichment) (E-score (-0.5 to 0.5)); higher = stronger / more preferred TF binding; most listed sequences are background and not binding sites). Conditions: protein concentration: 200 nM; construct: GST-DNA-binding domain.
Outline: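 E-scores (a modified Wilcoxon-Mann-Whitney statistic) were assigned by the Universal PBM Analysis Suite to every ungapped eight-base word pooled with its reverse complement. The input came from universal all-10-mer Agilent arrays made double-stranded by primer extension and probed with GST-tagged yeast transcription factors at about 100-200 nM. Fluorescent anti-GST detected bound protein, and masliner normalised the scans.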

Sequence | PBM E-score
AACAGAAC | 0.201
TATCCAGA | 0.052
CCGGGCCG | 0.0193
ATGGAATG | -0.0794
AAAAGGGG | 0.00194
GGAAATAA | 0.284
ATCTTCGC | 0.0331
ATACAGTC | -0.0893
ACTGTATC | 0.102
AACGCACC | 0.103
AGCACCTA | -0.0986
CATGACGG | -0.0121
CGCCATCA | -0.114
GGGGTGTA | -0.142
CGGGTTAA | 0.0516
CGAGATAA | 0.211
ATAGGTGC | 0.00643
TCGTAGAA | -0.0518
AGGCATAG | -0.0107
CATTACAG | 0.112
CCCCGGCA | -0.0173
GTCACGTA | -0.151
CTCGCGAG | 0.219
AATGTTGT | 0.0307
AATAGATA | 0.223

Sequence | PBM E-score
CGGCTACA | 0.0056
GCTTTTCA | 0.0798
AGGCACTC | -0.157
CTCTCCCC | -0.0617
CGTCACGA | 0.127
AATCCGGG | 0.116
ACCCTGTC | -0.147
AGTAAGTA | 0.166
CCGGCGAA | 0.0568
CGGTCCCA | -0.197
GGGCACCA | -0.137
CGGTCGCA | -0.0691
GTTCCACA | 0.00282
CCGACACG | 0.0247
ATGGGTGA | -0.0464
CTCTCTAC | -0.147
CACGCCGA | -0.0909
CGCAGGCA | -0.062
ATACGTAA | 0.0648
CCAACCAG | -0.225
CAAATGGG | 0.119
ATGGTCTC | 0.11
ATCGAGCA | -0.00019
GGAGCCAC | -0.161
ACTATTAT | 0.113

Sequence | PBM E-score
ACTGGTTC | -0.0919
CCGCTGCG | -0.0389
ACAGTATA | 0.0891
GCTACTCC | -0.00343
CTGTAAAA | 0.219
GAAGCTAA | -0.0448
AGCTCGAT | 0.00368
GATCTGGA | 0.0761
AGGTTATG | 0.0846
CGCGCGTA | 0.0065
AACAAATC | 0.12
TGTCTCAA | 0.246
GTCTACCA | -0.188
GCTATCAA | 0.109
TCTGGCAA | 0.0559
AGTTCTCA | 0.0827
TATACCAA | 0.226
CGGCGAAG | -0.0536
GTATTGAA | 0.144
AAAAAATA | 0.267
GATTAACC | -0.117
AATGCAAA | 0.202
AATGTAAT | 0.187
AGAACGCC | -0.148
CCGCGTCC | 0.0467

Sequence | PBM E-score
GGCATGAA | 0.188
AATTCTCG | 0.237
CCCCCGTC | -0.246
ACACCCTG | -0.185
ATTCTTAG | -0.0832
ACAAACTA | 0.158
GGCATCTA | -0.0304
GGACGTCA | -0.0412
TCCACAAA | 0.14
ACTCAACT | 0.166
AATCCTAA | 0.234
AATATCAT | 0.118
AACGTCTG | -0.00956
AGACAGTA | -0.0507
AGGGGTAG | -0.0327
GATTTTCA | 0.115
GAAAGCTA | 0.017
AAGCAGAA | 0.109
AATTGGGC | -0.0357
CCTAGTGC | -0.0666
ACCCTACA | -0.063
CCGCAGGC | 0.033
CATTCGAC | 0.00565
ACGAGACT | -0.249
CTAGCAAA | 0.145

Sequence | PBM E-score
AAGGAGAT | -0.0682
AAGCCACT | -0.163
ACCCCTCC | 0.229
CGGGGCAC | -0.0935
CCGGAATC | -0.0232
CGTTCCCC | 0.00256
TGAATGCA | 0.174
CTACGGCC | -0.278
ACGTATGA | 0.138
GGTAACGA | 0.0224
GGAATCCA | -0.0608
ACGATTTA | 0.171
CAGTGAGC | -0.155
TCCTCCCA | -0.0691
CCGCCAGG | -0.206
CTCTAGCA | -0.0672
AATCTTGG | -0.0302
CGGCCGTA | -0.01
ACTGTAGC | -0.157
AAAAAAAA | 0.367
AGGAAGGG | -0.213
AGGTACAC | -0.144
TAGACCCA | 0.102
CCACGGGA | -0.126
GATTATCC | 0.0536

Sequence | PBM E-score
CACCCACA | -0.00321
ATTAGGGG | -0.0469
GCTACTAA | -0.0557
ATAGCATA | -0.011
GCCGGGGA | -0.0159
GGAGCCAA | -0.043
AACGCGGA | 0.102
CGCCCCCA | -0.079
ACCCGAAC | 0.241
TGCGACAA | 0.225
GAAGAAGC | -0.0161
AGGGGTTG | 0.105
ATGGTACA | 0.0633
AACTTTAT | 0.165
CAGTAATC | -0.144
AGACAAAG | -0.0458
ACGATCCA | -0.0639
TAATAACA | 0.155
GCCATGTA | -0.028
AGACGAGA | -0.00813
ATAGATCC | -0.0511
ACTGACAT | 0.0507
CCTCTAAC | 0.0258
GGCTAAAA | 0.233
ATTTTACG | 0.243

Sequence | PBM E-score
CGAATGAG | 0.0717
CCTAAGAA | -0.0255
GTCCCCCA | -0.0688
ACCGGATC | -0.0235
ATATTCAA | 0.251
GGACAAGA | -0.059
CCACGTAA | -0.143
GCAATGCC | -0.188
GATAGTCC | -0.174
AACGATAC | 0.104
GCATCGCA | 0.0839
AATTAGAT | 0.144
GCCGAAAC | 0.178
GTATTGGA | -0.133
GATTGAGA | 0.0757
AAGGTTGG | -0.0882
CTTAGTCA | -0.0476
AAGCTACG | -0.174
CCACTCCG | -0.0381
GACCGGGC | -0.122
CGAGACTC | -0.043
GAGGTCGC | -0.175
